Data from PubChem BioAssay AID588855 (National Center for Advancing Translational Sciences (NCATS), 2011).
In all, about 410,000 compounds went through this assay and about 5,000 (1.2%) were called active. Inconclusive results, whose numbers are uncertain, are shown with a selection of clear calls. The call rests on the fitted dose curve; in most records, active means well fitted inhibition curve with a large enough effect; inconclusive means small, poorly fitted or top-dose-only effect; inactive means no such curve, though single readings can be large or run the other way. Potencies of inconclusive entries are doubtful fits and often do not repeat.

Assay: qHTS for Inhibitors of TGF-b; further: nearly all actives have a fitted effect of over 65% in size
Settings: HepG2 CAGA-GFP TGF-b/SMAD3 reporter, GFP fluorescence, 18 h, TGF-beta stimulated, 500 pg/mL final; series mostly up to 46.1 µM; activity, negative = inhibition: at the top concentration
In short: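 HEPG2 CAGA-GFP reporter cells (1000/well, DMEM with 1% FBS) received compounds, then recombinant TGF-beta at 500 pg/mL final for 18 hours at 37 degrees C. Per-cell GFP summed per well was normalised to unstimulated and stimulated DMSO controls before curve fitting.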
On the % scale 0 is the no-effect control and ±100 the full control effect; potency means the concentration at half of the fitted maximal effect; tags describe the fitted curve by direction and shape.

Question: Which Potency does the source give for CCN(CCCNS(=O)(=O)c1cc(-c2cc(C)no2)ccc1C)Cc1ccccc1 here?
Answer: inconclusive: 14.1 µM [inhibitor, partial curve, poor fit]

Question: Which Potency does the source give for Cc1cccc(C)c1-c1ccc(CN2C(CC(C)C)C(=O)N(Cc3cn(CC4CCCCC4)nn3)CCS2(=O)=O)cc1 (stereo not given) here?
Answer: inconclusive: 11.2 µM [inhibitor, partial curve, poor fit]

Question: Which “activity, negative = inhibition” value does the source give for Cc1ccc(Cn2c(NCCCn3ccnc3)nc3c2c(=O)n(C)c(=O)n3C)cc1 here?
Answer: inactive: -1.48%

Question: Which Potency does the source give for O=C(Cc1ccc(N2CCNC2=O)cc1)N1CCCC(Nc2cccc(F)c2)C1 (stereo not given) here?
Answer: inconclusive: 22.4 µM [inhibitor, single point]

Question: For COc1ccc(Cl)cc1NC(=O)CNc1ccc(F)cc1C, which Potency is on record?
Answer: inconclusive: 10 µM [inhibitor, partial curve, poor fit]

Question: With O=C(N/N=C/c1ccc(F)cc1)c1cc(-c2ccco2)nc2ccccc12 as the compound, how does the Potency read?
Answer: inconclusive: 14.1 µM [inhibitor, partial curve, poor fit]

Question: For O=C(NCc1ccccc1)C1CCN(S(=O)(=O)c2ccc3c(c2)CCCN3C(=O)C2CCC2)CC1, which Potency is on record?
Answer: inconclusive: 17.8 µM [inhibitor, single point]

Question: For COC(=O)Nc1cccn(Cc2c(Cl)cccc2Cl)c1=O, which “activity, negative = inhibition” value is on record?
Answer: inactive: 0%

Question: Which Potency does the source give for CCOc1ccc(N2CC(c3nc4ccccc4n3Cc3ccccc3F)CC2=O)cc1 (stereo not given) here?
Answer: inconclusive: 25.1 µM [inhibitor, single point]

Question: For COc1ccc(-c2nnc(SCC(=O)NC3CCCC3)nc2-c2ccc(OC)c(OC)c2)cc1OC, which Potency is on record?
Answer: inconclusive: 35.5 µM [inhibitor, partial curve, poor fit]

Question: Which Potency does the source give for Cc1ccc(/C=C/C(=O)NC(=S)Nc2ccc(S(=O)(=O)Nc3cc(C)on3)cc2)cc1 here?
Answer: inconclusive: 15.8 µM [inhibitor, single point]

Question: With CCOC(=O)c1nnc(-c2ccccc2)nc1Sc1ccccc1Cl as the compound, how does the Potency read?
Answer: inconclusive: 22.4 µM [inhibitor, single point]

Question: For COc1ccc(CCNc2nc(-c3ccc(OC)c(OC)c3)cc(C(F)(F)F)n2)cc1OC, which Potency is on record?
Answer: inconclusive: 11.2 µM [inhibitor, partial curve]

Question: For CC1=NN2C(=N)/C(=C\c3ccc(SCc4ccccc4)o3)C(=O)N=C2S1, which “activity, negative = inhibition” value is on record?
Answer: inactive: 1.47%

Question: Which Potency does the source give for Cc1ccc(-c2cn(-c3cccc(Cl)c3)c(S(=O)(=O)CC(=O)Nc3cccc(C)c3)n2)cc1 here?
Answer: inconclusive: 15.8 µM [inhibitor, partial curve, poor fit]

Question: Which “activity, negative = inhibition” value does the source give for Cc1cc(C)c2oc(C(=O)N3CCN(C)CC3)cc(=O)c2c1 here?
Answer: inactive: -2.41%

Question: For Cc1cc(Br)c(NC(=O)CCl)c(Br)c1, which Potency is on record?
Answer: inconclusive: 25.1 µM [inhibitor, single point]

Question: Which Potency does the source give for O=C(NCCN1CCOCC1)c1cccc(S(=O)(=O)N2CCCC2)c1 here?
Answer: inconclusive: 0.112 µM [inhibitor, full curve, poor fit]

Question: Which Potency does the source give for CC(C)(C)c1cc(=O)n(-c2ccccc2)[nH]1 here?
Answer: inconclusive: 11.2 µM [inhibitor, partial curve, poor fit]

Question: With Cc1ccc(NC(=O)C2(c3ccccc3)CC2(Cl)Cl)cc1C (stereo not given) as the compound, how does the Potency read?
Answer: inconclusive: 35.5 µM [inhibitor, single point]

Question: Which Potency does the source give for CCn1cc(C(=O)NCCCN2CCCC(C)C2)c(=O)c2cc(S(=O)(=O)N(C)C3CCCCC3)ccc21 (stereo not given) here?
Answer: inconclusive: 31.6 µM [inhibitor, single point]

Question: For Fc1ccc(N2CCN(C3=Nc4cccc5cccc3c45)CC2)cc1, which Potency is on record?
Answer: inconclusive: 35.5 µM [inhibitor, single point]

Question: With CC(C)N1CCC2(CC1)Oc1ccc(Br)cc1C1CC(c3cccnc3)=NN12 (stereo not given) as the compound, how does the Potency read?
Answer: inconclusive: 14.1 µM [inhibitor, single point]

Question: For Cc1ccc(F)c(S(=O)(=O)NC(=O)C2(C)CCN2C(=O)C2(c3ccc(Cl)cc3)CCC2)c1 (stereo not given), which Potency is on record?
Answer: inconclusive: 35.5 µM [inhibitor, single point]

Question: For CC1(CC(=O)N/N=C/c2cc([N+](=O)[O-])c(O)cc2O)OCCO1, which “activity, negative = inhibition” value is on record?
Answer: inactive: -15.2%

Question: For Cn1ccc2cc(-c3ccc4ncnc(NCc5cccs5)c4c3)ccc21, which Potency is on record?
Answer: inconclusive: 25.1 µM [inhibitor, single point]

Question: With O=c1ccc2[n+]([O-])c3ccc(O)cc3oc-2c1 as the compound, how does the Potency read?
Answer: inconclusive: 0.501 µM [inhibitor, full curve]

Question: Which Potency does the source give for Cc1ccc(N(CC(=O)NC2CCCC2)C(=O)CCC(=O)Nc2nccs2)c(C)c1 here?
Answer: inconclusive: 0.794 µM [inhibitor, full curve, poor fit]

Question: With CCC[C@H](CN[C@@H](CNC)[C@H](C)CC)NCCc1cc(C(F)(F)F)cc(C(F)(F)F)c1 as the compound, how does the Potency read?
Answer: active: 15.8 µM

Question: With O=C(Nc1cccc(S(=O)(=O)NC2=NCCCCC2)c1)c1cc(-c2ccco2)nc2ccccc12 as the compound, how does the Potency read?
Answer: inconclusive: 35.5 µM [inhibitor, single point]

Question: Which “activity, negative = inhibition” value does the source give for CCN(CCCNC(=O)c1nn(C)c2c1CS(=O)(=O)c1ccccc1-2)Cc1ccccc1 here?
Answer: inactive: 5.53%

Question: For C/C(=N\NC(=S)Nc1cccc(C)c1)c1ccccc1, which “activity, negative = inhibition” value is on record?
Answer: inactive: -19.9%

Question: Which Potency does the source give for O=C(N/N=C/c1ccccc1O)C1(O)c2ccccc2-c2ccccc21 here?
Answer: inconclusive: 22.4 µM [inhibitor, single point]

Question: For CC(C)C[C@H](NC(=O)N1CCCCCC1)C(=O)O, which “activity, negative = inhibition” value is on record?
Answer: inactive: -1.46%

Question: Which Potency does the source give for Cc1onc(-c2ccccc2)c1C(=O)OCCOc1ccc([N+](=O)[O-])cc1[N+](=O)[O-] here?
Answer: active: 14.1 µM

Question: Which Potency does the source give for O=[N+]([O-])c1ccc(N/N=C\c2cccn2-c2ccccc2)nc1 here?
Answer: inconclusive: 35.5 µM [inhibitor, single point]

Question: For O=C(CCCc1ccccc1)Nc1cccnc1, which Potency is on record?
Answer: inconclusive: 1 µM [inhibitor, full curve, poor fit]

Question: For O=C(c1ccc2c(c1)N(Cc1ccc(F)cc1)C(=O)c1ccccc1S2=O)N1CCC(Cc2ccccc2)CC1 (stereo not given), which Potency is on record?
Answer: inconclusive: 0.562 µM [inhibitor, full curve, poor fit]

Question: For CC(NC(=O)c1ccc2ccccc2n1)c1ccccc1 (stereo not given), which “activity, negative = inhibition” value is on record?
Answer: inactive: 23.6%

Question: Which Potency does the source give for CC1(C)CC(=O)C(C(c2cccc([N+](=O)[O-])c2)C2C(=O)CC(C)(C)CC2=O)C(=O)C1 here?
Answer: inconclusive: 0.316 µM [inhibitor, full curve, poor fit]
